According to PubChem BioAssay AID651820 (National Center for Advancing Translational Sciences (NCATS), 2012):
The campaign covered roughly 340,000 compounds. About 12,000 (3.5%) were called active. The inconclusive results got no clear call from the source; some entries with a clear call stand among them for comparison. The call rests on the fitted dose curve; in most records, active means well fitted inhibition curve with a large enough effect; inconclusive means small, poorly fitted or top-dose-only effect, or another doubt; inactive means no such curve, though single readings can be large or run the other way. Potencies of inconclusive entries are left out as doubtful fits.
On the % scale 0 is the no-effect control and ±100 the full control effect; potency means the concentration at half of the fitted maximal effect; tags describe the fitted curve by direction and shape.

Assay: qHTS Assay for Inhibitors of Hepatitis C Virus (HCV)
Conditions: Huh7.5.1 HCVcc-Cre (HCVcc is cell-culture hepatitis C virus) infection, luciferase reporter, 44 h; activity change, negative = inhibition: at 41.8 µM (top of the series)
Method in brief: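 HCVcc-Cre virus at an moi near 0.5 was added right after compound to cells cultured 4 h from seeding (1,000 cells/well). Luciferase activity was determined 44 h later, 15 min after substrate addition at RT.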
In the case of COc1cc(OC)nc(N/N=C(\c2ccccc2)c2ccncc2)n1, the Potency is reported as inconclusive [inhibitor, single point].
For COc1ccc(OC)c(NC(=O)C2CC(/C=C/c3ccccc3)=NO2)c1 (stereo not drawn), the Potency was inconclusive [inhibitor, single point].
In the case of CCOc1ccccc1N(CC(=O)Nc1ccc(OC)cc1)S(=O)(=O)c1ccccc1, the Potency is reported as inconclusive [inhibitor, single point].
For CN1CCN(Cc2coc3c(Cl)cc(Cl)cc3c2=O)CC1, the Potency was inconclusive [inhibitor, single point].
In the case of O=C(Cn1nnc(-c2ccc(CN3CCOCC3)cc2)n1)NC1CCCCC1, the Potency is reported as inconclusive [inhibitor, single point].
In the case of O=C(Nc1ccc(Cl)cc1)c1cc(Br)ccc1OCC(=O)N1CCOCC1, the Potency is reported as inconclusive [inhibitor, partial curve, poor fit].
For CC1CN(CC(O)COC(c2ccc(Cl)cc2)c2ccc(Cl)cc2)CC(C)O1 (stereo not drawn), the Potency was active: 10 µM.
In the case of CCc1c(C(=O)Nc2ccncc2)csc1C, the Potency is reported as inconclusive [inhibitor, partial curve].
For O=C(CSc1ncn[nH]1)N1N=C2/C(=C/c3ccccc3)CCCC2C1c1ccccc1 (stereo not drawn), the Potency was “inactive”.
In the case of Cc1ccccc1-n1c(SCc2csc(Nc3ccccc3)n2)nnc1-c1cccnc1, the Potency is reported as inconclusive [inhibitor, single point].
With Cc1ccc(NC(=O)c2ccc3ccccc3n2)cc1S(=O)(=O)N(C)C the Potency was inconclusive [inhibitor, partial curve].
For O=C(NCCc1c[nH]c2ccccc12)C1CCN(S(=O)(=O)c2ccc(F)cc2)CC1, the Potency was inconclusive [inhibitor, single point].
In the case of O=C(COc1cc(O)c2c(=O)c3ccccc3oc2c1)OCc1ccccc1, the Potency is reported as inconclusive [inhibitor, single point].
For O=S(=O)(c1cc(O)ccc1O)c1cccc2c(S(=O)(=O)c3cc(O)ccc3O)cccc12, the Potency was active: 10 µM.
For CCN1C(=O)[C@H]2[C@H]3CN=C(SCc4ccc(OC)cc4)N3[C@@](CC)(C(=O)OC)[C@H]2C1=O, the activity change, negative = inhibition was inactive: 5.51% [at 8.37 µM].
In the case of CCN(CC)C(=O)N1CCN(c2c([N+](=O)[O-])c(=O)oc3ccccc23)CC1, the Potency is reported as “inactive”.
With O=C(/C=C/Nc1ccc(F)c(Cl)c1)c1ccco1 the Potency was inconclusive [inhibitor, single point].
In the case of CN(Cc1ccccc1)c1ccc(C(CC(N)=O)NC(=O)Cc2ccc(Br)cc2)cc1[N+](=O)[O-] (stereo not drawn), the Potency is reported as inconclusive [inhibitor, partial curve].
With O=C(N/N=C/c1ccc(Br)s1)c1cccnc1 the Potency was inconclusive [inhibitor, single point].
With Cc1ccc(NC(=O)NC(=O)CSc2nnc(-c3ccc(OC(F)F)cc3)n2N)c(C)c1 the Potency was inconclusive [inhibitor, single point].
With O=C(COc1ccccc1)Nc1ccc(OC(F)(F)C(F)F)c(NC(=O)COc2ccccc2)c1 the Potency was inconclusive [inhibitor, partial curve].
With Cc1ccccc1S(=O)(=O)Oc1ccc2ccc(O)cc2c1 the Potency was active: 22.4 µM.
In the case of Cc1cccc(C(=O)Nc2nc3ccc(S(C)(=O)=O)cc3s2)c1, the Potency is reported as inconclusive [inhibitor, single point].
With Cc1ccc(S(=O)(=O)N(CC(=O)NCc2ccncc2)Cc2ccc(F)cc2)cc1 the Potency was “inactive”.
With COc1ccc(C(=O)NCC(=O)N/N=C/c2cccc(OC(=O)c3ccco3)c2)cc1OC the Potency was “inactive”.
With COc1c(Cl)cnn(-c2ccccc2)c1=O the Potency was inconclusive [inhibitor, single point].
For O=C(CCCCCn1c(=S)[nH]c2cc3c(cc2c1=O)OCO3)NCCc1ccccc1, the Potency was inconclusive [inhibitor, partial curve].
With CC1Sc2ccc(S(=O)(=O)CCC(=O)NC3CCCC(C)C3C)cc2NC1=O (stereo not drawn) the Potency was inconclusive [inhibitor, single point].
In the case of CCOC(=O)c1c(CSc2ccc(CC)cc2)oc2ccc(O)c(CN(C)C)c12, the Potency is reported as active: 3.98 µM.
With O=C(CNC1CCCCC1)NN=C(c1ccccc1)c1ccccc1 the Potency was “inactive”.
For Nc1ccc(S(=O)(=O)N2CCCC2)cc1, the Potency was inconclusive [inhibitor, single point].
With Cc1nc(N2CCN(C(=O)c3ccco3)CC2)c2oc3ccccc3c2n1 the Potency was inconclusive [inhibitor, single point].
With CN(CC(=O)Nc1cccc(F)c1)CC(=O)Nc1ccccc1[N+](=O)[O-] the Potency was inconclusive [inhibitor, single point].
With Oc1c(C(c2ccccn2)N2CCCCC2)cc(Cl)c2cccnc12 (stereo not drawn) the Potency was active: 10 µM.
For CCN1C(=O)[C@H]2[C@H]3CN=C(SCC(=O)c4ccccc4)N3[C@@](C)(C(=O)OC)[C@H]2C1=O, the Potency was inconclusive [inhibitor, single point].
For Cc1cc(N(CCCl)CCCl)ccc1/C=N/NC(=O)c1ccco1, the Potency was inconclusive [inhibitor, full curve, poor fit].
In the case of Cc1occc1C(=O)NC1CCCN(Cc2ccc(Cl)cc2)C1 (stereo not drawn), the Potency is reported as inconclusive [inhibitor, single point].
With CC(C)(C)CC(=O)Nc1nn[nH]n1 the Potency was “inactive”.
For Cc1ccc(-c2csc(Nc3ccccc3)[n+]2CCc2ccccc2)cc1, the Potency was “inactive”.
With CCN(CC)c1ccc(NC(=O)c2cccnc2)cc1 the Potency was inconclusive [inhibitor, partial curve, poor fit].
With O=C(/C=C/c1ccccc1)NC(NC(=S)Nc1cccc(O)c1)C(Cl)(Cl)Cl (stereo not drawn) the Potency was inconclusive [inhibitor, single point].
In the case of COc1ccc(/C=C/C(=O)c2c(O)cc(C)oc2=O)c(OC)c1, the Potency is reported as active: 11.2 µM.
With Nc1nc(Nc2ccccc2)nc(NCc2ccccc2)c1[N+](=O)[O-] the Potency was inconclusive [inhibitor, single point].
